# About 14,000 (4.5%) of roughly 310,000 compounds showed an effect of 50% or more. Effects have a minus sign here. The list shows a part of the results.
# Target: human ether-à-go-go-related gene (hERG) potassium channel (human, UniProt Q12809)
# Test: primary screen, population patch clamp on CHO cells stably expressing hERG
# 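Note: peak tail current of the secondary pulse compared with the same well before compound.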
# Sequence of human ether-à-go-go-related gene (hERG) potassium channel (Q12809 whole entry, looked up): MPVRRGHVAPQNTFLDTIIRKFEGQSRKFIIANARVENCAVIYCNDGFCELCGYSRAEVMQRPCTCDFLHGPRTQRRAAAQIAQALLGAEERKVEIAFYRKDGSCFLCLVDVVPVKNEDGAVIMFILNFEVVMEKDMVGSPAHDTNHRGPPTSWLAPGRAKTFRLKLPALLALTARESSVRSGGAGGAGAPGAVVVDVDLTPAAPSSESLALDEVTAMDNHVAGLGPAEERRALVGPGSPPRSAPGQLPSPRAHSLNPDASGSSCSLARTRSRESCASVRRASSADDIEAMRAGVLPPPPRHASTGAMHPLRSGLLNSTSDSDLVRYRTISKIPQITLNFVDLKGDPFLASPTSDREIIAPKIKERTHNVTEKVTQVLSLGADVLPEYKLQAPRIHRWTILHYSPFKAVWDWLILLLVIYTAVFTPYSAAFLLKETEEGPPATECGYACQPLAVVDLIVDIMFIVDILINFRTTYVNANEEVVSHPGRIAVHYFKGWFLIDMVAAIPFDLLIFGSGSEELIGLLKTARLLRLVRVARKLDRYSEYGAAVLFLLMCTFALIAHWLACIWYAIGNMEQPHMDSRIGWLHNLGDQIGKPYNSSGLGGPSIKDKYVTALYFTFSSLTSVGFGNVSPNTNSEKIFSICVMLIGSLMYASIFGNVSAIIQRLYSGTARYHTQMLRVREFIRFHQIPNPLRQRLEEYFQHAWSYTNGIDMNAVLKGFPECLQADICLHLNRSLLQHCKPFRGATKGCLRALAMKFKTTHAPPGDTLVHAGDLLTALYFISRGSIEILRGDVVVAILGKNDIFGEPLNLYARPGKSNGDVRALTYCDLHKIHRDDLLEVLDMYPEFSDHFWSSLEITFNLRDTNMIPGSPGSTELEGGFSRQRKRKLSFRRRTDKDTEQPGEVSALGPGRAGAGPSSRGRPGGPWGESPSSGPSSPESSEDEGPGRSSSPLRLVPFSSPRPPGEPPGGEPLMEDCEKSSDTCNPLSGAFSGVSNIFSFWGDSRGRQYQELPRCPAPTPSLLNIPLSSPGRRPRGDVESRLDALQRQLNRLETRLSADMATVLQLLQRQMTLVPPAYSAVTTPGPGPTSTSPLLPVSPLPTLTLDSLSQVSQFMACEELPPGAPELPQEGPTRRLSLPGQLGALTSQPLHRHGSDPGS
row,SMILES,"hERG current change (%, negative = inhibition) at 10uM [%]"
1,CC1CCN(S(=O)(=O)c2ccc3[nH]c(=O)[nH]c3c2)CC1,-3.58
2,Cc1cc(NC(=O)CCC(=O)N(c2cccc(F)c2)C(C(=O)NC2CCCC2)c2ccncc2)no1 (stereo not drawn),6.08
3,Cn1nc(-c2ccccc2)cc1NC(=O)c1ccccc1,8.5
4,Cc1ccccc1[C@]1(C)ON(c2ccccc2C(F)(F)F)C1=O,12.9
5,O=C(O)CCC(=O)Nc1ccc2c(c1)oc1ccccc12,0.665
6,O=C(NCC1CCCO1)c1cccc(Oc2ccc([N+](=O)[O-])cc2Cl)c1 (stereo not drawn),-72.6
7,O=C(Cc1ccc(NS(=O)(=O)c2ccc(F)cc2)cc1)NCc1cccnc1,13.1
8,CC(C)c1ccc(NC(=O)c2snc3ccc(Cl)cc23)cc1,14.4
9,CCOc1ccc(N(CC(=O)Nc2ccc(C)cc2)S(C)(=O)=O)cc1,9.02
10,C=CCn1c(=O)c(C(=O)NCCc2ccc(Cl)cc2)c(O)c2cc(OC)c(OC)cc21,19
11,CCc1ncc(CN2CCC(C(=O)Nc3cccc(-c4cscn4)c3)CC2)cn1,-25.1
12,N#CC1(NC(=O)CSc2nc3ccccc3s2)CCCCC1,-15.7
13,O=C(Nc1nnc(-c2ccc(Cl)cc2)o1)NC1CCCCC1,16.1
14,COc1cccc(N2C(=O)NC(=O)/C(=C/c3ccc4c5c(cccc35)CC4)C2=O)c1,2.98
15,O=C(c1ccc(S(=O)(=O)N2CCOCC2)cc1)N1CCN(c2cccc(Cl)c2)CC1,-42.4
16,COC(=O)CCCCCN1C(=O)NC(c2ccccc2)C(C(=O)OCc2ccccc2)=C1C (stereo not drawn),6.17
17,O=C(NC(=S)Nc1ccccc1Br)c1cccnc1,16.4
18,CCOc1ccc(Nc2cc(Nc3ccccc3OCC)nc(C=C(C#N)C#N)n2)cc1,2.96
19,Cc1ccc(NC(=O)c2ccc(NS(=O)(=O)c3c(C)noc3C)cc2)cc1C,-13.3
20,COCC(C)NC(=O)C(C)Oc1ccccc1 (stereo not drawn),12
21,CC(C)c1nc2ccccn2c1NC1CCCCC1,-20.9
22,COc1ccccc1Nc1nc(N)nc(CSc2nc(C)cc(C)n2)n1,-13.5
23,CC1CCC(NC(=O)C2(C)CCC(=O)N2Cc2cccnc2)CC1 (stereo not drawn),7.11
24,Cc1cc(NC(=O)Cn2cc(C(F)(F)F)cc(Cl)c2=O)no1,-4.57

# Source: PMC4336329 (PLoS ONE, 2015)
